# Source: the supplement of paper PMC10126150
# Values marked as one replicate rest on one cluster of the flow cell; about a third of the high ones do not repeat.
# Tested on: ATP
# Test: switch fluorescence ratio, 500 uM ATP over buffer (Cy3 cluster intensity, sum of 5 cycles each) (fold (ratio)); higher = stronger signal-on switching upon ATP binding; sequences stand for … in TCGTCGGCAGCGTCAGATGTGTATAAGAGACAGTTTTTTTTTTTTTTTTTTTTTTTTT…TC
# Settings: aptamer strand: ATP DNA aptamer (quencher-CACCTGGGGGAGTATTGCGGAGGAAGG + anchor), 100 nM annealed; ATP concentration: 500 uM; one replicate
# Summary of the method: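 Clusters with intensities outside 100-1000 RFU were excluded. The remaining Cy3-labelled switching-strand clusters on a modified Illumina MiSeq flow-cell had been annealed to 100 nM quencher-labelled ATP aptamer and imaged in selection buffer, then after 15 min with 500 uM ATP at 22 °C, for five cycles separated by NaOH stripping and re-annealing. The fluorescence ratio, averaged per switch-domain sequence, is each cluster's summed target-cycle Cy3 intensity over its summed buffer-cycle Cy3 intensity.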
# 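Also: ATP exposure 15 min at 22 °C before imaging.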
row,Sequence,switch fluorescence ratio
1,CGCACAAATC,1.44
2,CGCACATTGA,1.14
3,CGCACCATGA,1.08
4,CGCACCGAAG,1.18
5,CGCACCGTG,1.02
6,CGCACTAAC,5.31
7,CGCACTTTCA,1.05
8,CGCAGATTT,1.04
9,CGCAGCTCTA,2.32
10,CGCAGGGTAG,1.01
11,CGCAGGTGCT,3.56
12,CGCAGGTTGC,1.3
13,CGCAGGTTGG,0.988
14,CGCAGTGGAA,1.03
15,CGCAGTGGGA,1
16,CGCATAGTTA,1.03
17,CGCATCATTC,1.89
18,CGCATGATAT,1.35
19,CGCATTGGTT,1.09
20,CGCATTTAGC,1.3
21,CGCCAAGTCG,0.988
22,CGCCAATA,1.04
23,CGCCACCGGA,1.02
24,CGCCATGTTC,1.11
25,CGCCCAATTG,1.51
26,CGCCCATGGG,1.03

row,Sequence,switch fluorescence ratio
1,CGCCCCATCT,1.02
2,CGCCCCGGGC,1.04
3,CGCCCTGCCT,0.979
4,CGCCCTGTGA,1.11
5,CGCCGATAGA,1.04
6,CGCCGCAGAA,4.5
7,CGCCTCGGTT,0.962
8,CGCCTTAATA,1.09
9,CGCCTTATGT,0.919
10,CGCGAAGGTT,1.02
11,CGCGACCGAC,2.2
12,CGCGACCGTA,1.04
13,CGCGACGGGC,1.07
14,CGCGAGACCC,2.94
15,CGCGAGTTGC,1.06
16,CGCGCATAGG,1.12
17,CGCGCATGAT,1.14
18,CGCGCCGATT,1.05
19,CGCGCCTCGT,1.01
20,CGCGCCTTGA,0.994
21,CGCGCGGGAT,0.932
22,CGCGGATGG,1.02
23,CGCGGGGATT,1.09
24,CGCGGGGCGA,1.02
25,CGCGGGGTTC,1.04
26,CGCGGGTGGG,1.01

row,Sequence,switch fluorescence ratio
1,CGCGGTACT,3.39
2,CGCGTATCC,1.07
3,CGCGTATCGG,1.01
4,CGCGTATCGT,0.959
5,CGCGTGACG,0.955
6,CGCGTGTCAC,1.03
7,CGCGTGTTTG,1.02
8,CGCGTTAAAG,0.974
9,CGCGTTATCT,1.01
10,CGCGTTCGGC,1
11,CGCGTTTGAG,1.08
12,CGCTACCGCA,1.16
13,CGCTACCGGC,1.05
14,CGCTACCGGG,1.15
15,CGCTACCGTG,1.02
16,CGCTACTTGT,1.08
17,CGCTAGAAAG,1.01
18,CGCTAGAGGG,1.09
19,CGCTAGGGGT,1.08
20,CGCTATGGG,1.03
21,CGCTATGGTG,0.969
22,CGCTCACAGT,1.04
23,CGCTCATATA,1.07
24,CGCTCCGAAG,1.27
25,CGCTCCGGCG,1.03
26,CGCTCGTATC,0.986

row,Sequence,switch fluorescence ratio
1,CGCTCTCCTG,1.21
2,CGCTCTTTTT,1.01
3,CGCTGATATG,1.03
4,CGCTGGTATT,1.02
5,CGCTGGTTTT,1
6,CGCTGTCATT,1.01
7,CGCTGTGAGG,1.01
8,CGCTTATGGG,1
9,CGCTTCGGGA,1.01
10,CGCTTCTG,0.935
11,CGCTTTGTTA,1.01
12,CGGAAAACGC,1.06
13,CGGAAAGGA,0.963
14,CGGAAATGGT,1.04
15,CGGAACAGAT,1.01
16,CGGAAGAAAA,0.974
17,CGGAAGAGAT,0.985
18,CGGAAGGGG,0.969
19,CGGAAGTTC,0.986
20,CGGACAGCGG,1.03
21,CGGACATAAT,1.05
22,CGGACCACCA,1.12
23,CGGACCGGCG,1.01
24,CGGACCTCAT,1.04
25,CGGACGAAGC,1.12
26,CGGACGATGG,0.976

row,Sequence,switch fluorescence ratio
1,CGGACTTCCT,1.49
2,CGGACTTTAC,1.52
3,CGGAGAGGTG,1.01
4,CGGAGATGTT,0.995
5,CGGAGATTGC,1.1
6,CGGAGGCGCT,1.01
7,CGGAGGTGAG,1.03
8,CGGAGGTGGT,0.996
9,CGGAGTCACG,1.04
10,CGGAGTCATT,1.48
11,CGGATATTGA,1.02
12,CGGATCAAGT,1.03
13,CGGATCGTAT,0.976
14,CGGATGGGAG,1
15,CGGATGGTCC,1.01
16,CGGATGTCCA,1.02
17,CGGATGTGAA,0.995
18,CGGATTACAT,1.01
19,CGGATTATTC,1.02
20,CGGATTTACA,0.974
21,CGGCAAAGAA,1.05
22,CGGCAACGGC,1.07
23,CGGCAGAATG,1.03
24,CGGCAGATCC,1.09
25,CGGCAGGCAT,1.01
26,CGGCATTT,1.08

row,Sequence,switch fluorescence ratio
1,CGGCCAACAG,1.04
2,CGGCCAGGCG,1.09
3,CGGCCCAACG,1.01
4,CGGCCCCTGT,1.05
5,CGGCCCTTAC,3.2
6,CGGCCCTTGG,1.04
7,CGGCGAAAAA,1
8,CGGCGCAGTC,1.9
9,CGGCGCCTCG,1.04
10,CGGCGCGAAC,4.61
11,CGGCGCTGTT,1.19
12,CGGCGCTTTC,1.99
13,CGGCGGGTAC,2.05
14,CGGCGTATGC,1
15,CGGCGTCGCG,0.984
16,CGGCGTTCTC,1.03
17,CGGCTAGCGC,1.03
18,CGGCTATTTT,0.971
19,CGGCTGAAAT,1.05
20,CGGCTGGGTT,0.936
21,CGGCTGGTTG,0.966
22,CGGCTTTACG,1.04
23,CGGGAAAAAT,1.03
